Measurements as given in PubChem BioAssay AID624417 (National Center for Advancing Translational Sciences (NCATS), 2012).
Several values for one entry are separate records, joined by “and”; a condition that tells them apart may be missing. Equal values may be shown once. The campaign covered roughly 410,000 compounds. About 6,400 (1.6%) were called active. The shares of active, inactive and inconclusive entries below differ from those in the screen. The call rests on the fitted dose curve; in most records, active means well fitted inhibition curve with a large enough effect; inconclusive means small, poorly fitted or top-dose-only effect; inactive means no such curve, though single readings can be large or run the other way. Potencies beside an inconclusive call are fits to weak or partial responses and may not hold up.

These molecules were tested against Glucagon-like peptide 1 receptor (Homo sapiens) (UniProt P43220) (assay: qHTS of GLP-1 Receptor Inverse Agonists (Inhibition Mode)). Settings: HEK293 GLP-1R CRE-luciferase, luminescence, 24 h, GLP-1R form is constitutively active; series mostly up to 38.3 µM.
Sequence of UniProt P43220 (P43220 whole entry, looked up): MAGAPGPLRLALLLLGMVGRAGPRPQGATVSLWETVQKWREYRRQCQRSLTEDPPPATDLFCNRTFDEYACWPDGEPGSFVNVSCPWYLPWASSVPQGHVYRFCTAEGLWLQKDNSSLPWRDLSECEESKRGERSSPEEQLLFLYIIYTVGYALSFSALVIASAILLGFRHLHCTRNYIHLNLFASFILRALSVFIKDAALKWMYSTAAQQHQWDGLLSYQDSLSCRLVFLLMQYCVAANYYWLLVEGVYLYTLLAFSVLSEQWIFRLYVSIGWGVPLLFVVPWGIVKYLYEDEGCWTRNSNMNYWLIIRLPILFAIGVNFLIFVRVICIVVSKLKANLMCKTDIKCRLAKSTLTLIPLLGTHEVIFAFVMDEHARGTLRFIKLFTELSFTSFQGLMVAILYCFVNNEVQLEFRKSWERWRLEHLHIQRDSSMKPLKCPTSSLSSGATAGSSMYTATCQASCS
Procedure, shortened: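 Cells are plated, allowed 12 hours at 37 deg C, then treated with compounds for 24 hr before luciferase detection reagent is added and luminescence is read after 12 min at room temperature. The HEK293 line carries constitutively active GLP-1R with a cAMP-responsive reporter.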
Further: nearly all actives have a fitted effect of over 55% in size.
Potency means the concentration at half of the fitted maximal effect; tags describe the fitted curve by direction and shape.

Potency, inactive:
Nc1ccc(S(=O)(=O)NN=Cc2ccccc2[N+](=O)[O-])cc1
CCOC(=O)c1cnn(-c2nc(-c3cccc(F)c3)cs2)c1C(F)(F)F
Clc1ccc(C2=CC(c3ccco3)n3ncnc3N2)cc1 (centres undefined)
Cc1cc(C(F)F)n2ncc(C(=O)NCCc3ccc(Cl)cc3)c2n1
CN1CCCC1=Nc1ccccc1
O=C(C1=NN(c2ccccc2)C2C(=O)N(c3ccccc3Cl)C(=O)C12)c1ccccc1 (centres undefined)
COc1ccc(CNC(=O)c2sc3nc4n(c(=O)c3c2C)CCCC4)cc1
O=C(Cn1c(=O)n(Cc2nc(-c3ccccc3)no2)c(=O)c2cc3c(cc21)OCO3)Nc1ccccc1
CCOc1cnn(-c2cc(Oc3ccc(C)cc3)ncn2)c(=O)c1Cl
O=C(NC1CCCC1)C1c2ccccc2OCC(=O)N1Cc1cccnc1 (centres undefined)
CCn1ccc2cc(S(=O)(=O)N3CCCN(C(=O)Nc4ccccc4F)CC3)ccc21
C[C@H](NC(=O)N1CCn2c1nc1ccccc12)C(=O)NCc1ccco1
COc1ccccc1NC(=O)c1cc2c(=O)n(C)c3ccccc3c2n1C
OC(COCC1COc2ccccc2O1)CN1CCN(c2ccccn2)CC1 (centres undefined)

Potency, inconclusive:
Oc1ccccc1N1CCN(C(c2ccccc2)c2ccccc2)CC1 3.55 µM [inhibitor, partial curve, poor fit]
O=C(NCCC1=CCCCC1)C1CCN(C(=O)c2ccc(Cl)cc2)CC1 28.2 µM [inhibitor, single point]
Cc1noc(C)c1COC(=O)c1ccccc1Oc1ccccc1 31.6 µM [inhibitor, single point]
O=C(CNC(=O)c1ccc(F)cc1)c1ccccc1 28.2 µM [inhibitor, single point]
S=C1N(c2ccccc2)C(c2ccc(Cl)cc2)N2CCCN12 (centres undefined) 28.2 µM [inhibitor, single point]
CCc1ccccc1NC(=O)CN1CCN(CC(=O)NCc2ccc(Cl)cc2)CC1 7.08 µM [inhibitor, partial curve, poor fit]
Cc1ccsc1CN(C)CC(=O)NCC(=O)Nc1ccc(F)cc1 11.2 µM [inhibitor, partial curve, poor fit]
Cc1ccc(CS(=O)(=O)c2ccc(C(=O)N3CCN(c4ccccn4)CC3)cc2[N+](=O)[O-])cc1 7.08 µM [inhibitor, partial curve, poor fit]
COc1ccc(NC(=S)NC(NC(=O)/C=C/c2ccccc2)C(Cl)(Cl)Cl)cc1 (centres undefined) 1.26 µM [inhibitor, full curve]
Cn1cccc1/C=N/N1CCN(Cc2ccc(Cl)cc2)CC1 8.91 µM [inhibitor, partial curve, poor fit]
CCCCCC(=O)Nc1cccc(C2=NOC3(C2)C[C@@H](C(N)=O)N(C(=O)c2ccc(Cl)cc2)C3)c1 (some centres undefined) 31.6 µM [inhibitor, single point]
O=C(Nc1cc(-c2ccccc2)sc1C(=O)O)c1cccc(F)c1 28.2 µM [inhibitor, single point] and 22.4 µM [inhibitor, single point]
O=C(COc1ccccc1)NC1=NCCS1 11.2 µM [inhibitor, single point]
O=C(N/N=C/c1sc(=O)n(Cc2ccc(Br)cc2)c1Cl)c1ccco1 10 µM [inhibitor, single point]
Cc1sc(NC(=O)CSc2nnc(COc3ccc(Cl)cc3)n2C)c(C#N)c1C 17.8 µM [inhibitor, single point]
O=C(C(NS(=O)(=O)c1cccc2nsnc12)c1ccccc1)N1CCN(c2ccccn2)CC1 (centres undefined) 8.91 µM [inhibitor, partial curve, poor fit]
OC(C#CCN1CCOCC1)(c1ccccc1)C1CCCCC1 (centres undefined) 12.6 µM [inhibitor, partial curve, poor fit]
CN1CCN(Cc2nc3ccccc3c(=O)n2Cc2nc(-c3ccc([N+](=O)[O-])cc3)cs2)CC1 10 µM [inhibitor, partial curve, poor fit]
S=C(c1ccc(-c2cccc(Cl)c2)o1)N1CCCCC1 28.2 µM [inhibitor, single point]
CCc1nc2ccc(C(=O)N3CCN(c4ccc([N+](=O)[O-])cc4)CC3)cc2nc1CC 28.2 µM [inhibitor, single point]
O=C(COC(=O)c1cc(-c2cccs2)nc2ccccc12)c1ccc(F)cc1 28.2 µM [inhibitor, single point]
O=C(CSc1nc2ccccc2s1)NNC(=S)Nc1ccc(Br)cc1 10 µM [inhibitor, partial curve]
COC(=O)CCc1sc(Nc2ccc(Br)cc2)nc1-c1ccc(OC)cc1 15.8 µM [inhibitor, partial curve, poor fit]
COc1ccc(C[C@H]2CN3C(=NC[C@@H]3C(C)C)N2CCNC(=O)CCC2CCCCC2)cc1 28.2 µM [inhibitor, single point]
CCOC(=O)c1c(C)n(CC(O)CN(C)C)c2cc(Br)c(OC)cc12 (centres undefined) 17.8 µM [inhibitor, single point]
CCN(CC(=O)NCc1ccc(Cl)cc1)C(=O)CSc1ccccc1F 28.2 µM [inhibitor, single point]
CCOC(=O)c1c(-c2ccccc2)csc1NC(=O)C(C)NCCCN1CCOCC1 (centres undefined) 22.4 µM [inhibitor, single point]
COC(=O)c1ccc(C)c(NC(=S)NCc2ccc(Cl)cc2)c1 8.91 µM [inhibitor, partial curve, poor fit]

Potency, active:
CCOC(=O)C(=NCCOC)NNc1cc(Cl)ccc1Cl 2.82 µM
NNC(=O)c1cccc(COc2ccc(Br)cc2)c1 5.01 µM
